# PubChem BioAssay AID624417 (National Center for Advancing Translational Sciences (NCATS), 2012)
# Hit rate of the full screen: of about 410,000 compounds, about 6,400 (1.6%) were called active. This list was built around the results that the source calls inconclusive (neither active nor inactive); the mix of calls is not that of the screen. The call rests on the fitted dose curve; in most records, active means well fitted inhibition curve with a large enough effect; inconclusive means small, poorly fitted or top-dose-only effect; inactive means no such curve, though single readings can be large or run the other way. Potencies of inconclusive entries are left out as doubtful fits.
# Target: Glucagon-like peptide 1 receptor (Homo sapiens) (UniProt P43220)
# Test: qHTS of GLP-1 Receptor Inverse Agonists (Inhibition Mode); further: nearly all actives have a fitted effect of over 55% in size
# Details: HEK293 GLP-1R CRE-luciferase, luminescence, 24 h, GLP-1R form is constitutively active; activity change, negative = inhibition: at 38.3 µM (top of the series) unless noted
# Outline: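 GLP-1R inverse agonism mode: basal reporter luminescence in engineered HEK293 cells measured after one day of compound exposure at 37 deg C, with a 12 min room-temperature detection step.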
# On the % scale 0 is the no-effect control and ±100 the full control effect; potency means the concentration at half of the fitted maximal effect; tags describe the fitted curve by direction and shape.
# UniProt P43220, sequence (P43220 whole entry, looked up): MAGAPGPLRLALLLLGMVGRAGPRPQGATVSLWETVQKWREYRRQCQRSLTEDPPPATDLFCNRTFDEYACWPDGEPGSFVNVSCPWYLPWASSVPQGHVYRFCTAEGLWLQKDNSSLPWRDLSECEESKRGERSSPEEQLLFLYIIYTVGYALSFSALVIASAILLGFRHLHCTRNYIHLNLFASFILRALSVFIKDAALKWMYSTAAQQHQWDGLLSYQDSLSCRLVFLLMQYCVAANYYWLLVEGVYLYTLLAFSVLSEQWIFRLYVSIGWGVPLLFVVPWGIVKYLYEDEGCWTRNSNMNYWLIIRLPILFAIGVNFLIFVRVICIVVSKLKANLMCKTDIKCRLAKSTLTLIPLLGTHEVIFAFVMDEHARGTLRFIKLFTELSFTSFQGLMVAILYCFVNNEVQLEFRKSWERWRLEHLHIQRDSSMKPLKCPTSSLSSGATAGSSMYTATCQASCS
SMILES,Potency,"activity change, negative = inhibition"
CC(=O)C(=Cc1ccc(Cl)cc1)C(=O)c1ccccc1,"inconclusive [inhibitor, partial curve, poor fit]",–
COc1ccc(CC2(C)OC(c3ccc(Cl)cc3)=NN2C(C)=O)cc1 (stereo not drawn),"inconclusive [inhibitor, partial curve, poor fit]",–
COc1ccc(CC(=O)OCC(=O)c2ccc[nH]2)cc1,–,inactive: -16.3%
COc1ccc(-c2noc(CN3CCN(c4cccc(Cl)c4)CC3)n2)cc1,"inconclusive [inhibitor, single point]",–
CC1CCN(C(=O)c2ccc(S(=O)(=O)N3CCCCCC3)cc2)CC1,"inconclusive [inhibitor, single point]",–
CCN(CC)C(CNC(=O)CSc1nnnn1-c1c(C)cccc1C)c1ccco1 (stereo not drawn),"inconclusive [inhibitor, single point]",–
CCc1ccc(Nc2ccc(S(=O)(=O)N3CCOCC3)cc2[N+](=O)[O-])cc1,"inconclusive [inhibitor, single point]",–
CCCn1c(O)c(CN2CCCCC2)c(C)c(C#N)c1=O,–,inactive: -0.813%
CCCOc1ccc2oc(=O)c3c(c2c1)CCCN3C(=O)CN1CCCC(C(=O)OCC)C1 (stereo not drawn),"inconclusive [inhibitor, single point]",–
CCOC(=O)C1=CCC(c2cccc3ccccc23)N(S(=O)(=O)c2ccc(C)cc2)C1 (stereo not drawn),"inconclusive [inhibitor, single point]",–
Cc1ccc(C)c(NC(=O)CSc2nc(=O)n(Cc3ccccn3)c3c2CCC3)c1,–,inactive: 8.23%
N#Cc1c(-c2ccccc2)nc(-c2ccccc2)[nH]c1=O,–,inactive: 2.11%
CC(c1ccccc1F)n1cc(C(=O)NCCCn2ccnc2)nn1 (stereo not drawn),"inconclusive [inhibitor, full curve]",–
O=C(N/N=C/c1cccc2cccnc12)c1ccccc1O,"inconclusive [inhibitor, full curve, poor fit]",–
COc1ccc(NS(=O)(=O)c2cccc(C(=O)N/N=C/c3c(F)c(F)c(F)c(F)c3F)c2)cc1,"inconclusive [inhibitor, single point]",–
COc1ccc(O)c(/C=N/NC(=O)c2cc(=O)[nH]c3ccccc23)c1,"inconclusive [inhibitor, single point]",–
Cn1nc(-c2ccccc2F)c2cc(C(=O)N3CCN(c4ccc(F)cc4)CC3)sc21,"inconclusive [inhibitor, single point]",–
Cc1cc(N/N=C/c2ccc(Cl)cc2)nc(NCc2ccccc2)n1,active: 4.47 µM,–
O=C(Nc1ccccc1)c1ccc(NCC2CCCO2)c([N+](=O)[O-])c1 (stereo not drawn),–,inactive: 30%
O=C(Nc1cccc2cccnc12)c1ccccc1Br,"inconclusive [inhibitor, single point]",–
O=C(N/N=C\c1ccc(Cl)cc1)C1=NOC2COC3(CCN(c4ccc([N+](=O)[O-])cc4)CC3)OCC12 (stereo not drawn),"inconclusive [inhibitor, partial curve]",–

SMILES,Potency,"activity change, negative = inhibition"
CCOC(=O)[C@]12CCC=C1N(Cc1ccccc1)C(=O)[C@H](CC(=O)NCc1cccc3ccccc13)C2,"inconclusive [inhibitor, single point]",–
Clc1ccc(SCCOCCN2CCCCCC2)cc1,"inconclusive [inhibitor, single point]",–
Cc1ccc(S(=O)(=O)NC(C)c2ccccc2)cc1[N+](=O)[O-] (stereo not drawn),"inconclusive [inhibitor, partial curve, poor fit]",–
C(=C1c2ccccc2-c2ccccc21)c1ccccn1,"inconclusive [inhibitor, partial curve, poor fit]",–
COC(=O)[C@@]12C[C@@H](CC(=O)NCC3CCCCC3)C(=O)N(Cc3ccco3)C1=CCC(C)(C)C2,"inconclusive [inhibitor, single point]",–
CC(C)(C)c1ccc(S(=O)(=O)N2CCN(CCC#N)CC2)cc1,–,inactive: 10.2%
CCCc1cc(C(=O)Nc2cccc(Cl)c2)no1,"inconclusive [inhibitor, single point]",–
Cc1nc(C(F)(F)F)ccc1C(=O)N1CCC1(C)C(=O)NCc1cccs1 (stereo not drawn),–,inactive: 18.5%
Cc1ccccc1CN1CCC(Oc2ccc(C(=O)N3CCCC3)cc2)CC1,"inconclusive [inhibitor, partial curve, poor fit]",–
COCCN(C(=S)Nc1c(C)cc(C)cc1C)C(C)c1cccs1 (stereo not drawn),"inconclusive [inhibitor, single point]",–
CCN(CC)c1nn2c(=O)c(C(=O)NCc3cccc(C)c3)cnc2s1,–,inactive: 7.23%
CC(=O)c1c(C)oc2ccc(N(C(C)=O)S(=O)(=O)c3cccc([N+](=O)[O-])c3)cc12,"inconclusive [inhibitor, full curve]",–
COc1ccc(CNC(=O)Nc2nc(C(N)Cc3ccc(C(F)(F)F)cc3)cs2)cc1 (stereo not drawn),"inconclusive [inhibitor, partial curve, poor fit]",–
COc1ccc(-c2oc3c(c2C#CC2(O)CCCCC2)C(OC)CCC3)cc1 (stereo not drawn),"inconclusive [inhibitor, single point]",–
CC1C(=O)C(C)C(c2ccc(Br)cc2)NC1c1ccc(Br)cc1 (stereo not drawn),–,inactive: -18.4%
Cc1oc(-c2ccccc2F)nc1CS(=O)(=O)CC(=O)NCCN(C)C1CCCCC1,"inconclusive [inhibitor, single point]",–
C[C@@H]1CN(C(=O)c2nc3ccc(Cl)cn3c2CNCC[C@@H]2C[C@@H]3C=C[C@H]2C3)C[C@H](C)O1,"inconclusive [inhibitor, single point]",–
O=C(NCc1ccc2c(c1)OCO2)C(=O)NCC(c1ccco1)N1CCN(c2ccccc2)CC1 (stereo not drawn),"inconclusive [inhibitor, full curve]",–
COc1ccc(N=Cc2ccc(-c3ccccc3)o2)cc1,"inconclusive [inhibitor, partial curve, poor fit]",–
CN(CC(=O)Nc1ccc(Cl)cc1)C(=O)c1ccc(S(=O)(=O)Nc2ccccc2)cc1,"inconclusive [inhibitor, partial curve, poor fit]",–
Cc1ccc(NC(=O)C2OCCc3ccccc32)cc1C (stereo not drawn),"inconclusive [inhibitor, single point]",–

SMILES,Potency,"activity change, negative = inhibition"
COc1ccc(CNC(=S)NC(C)CCc2ccccc2)cc1 (stereo not drawn),active: 10 µM,–
CC(C)c1ccc(CNC(=O)C2CCCN2S(=O)(=O)c2ccccc2)cc1 (stereo not drawn),"inconclusive [inhibitor, partial curve, poor fit]",–
O=C(Cc1cccs1)N/N=C\c1ccc([N+](=O)[O-])s1,–,inactive: 2.36%
CCCCOc1cccc(C(=O)Nc2ccc3oc(-c4cccnc4)nc3c2)c1,–,inactive: -2.71%
Cc1cc(C)cc(-n2c(SCC(N)=O)nc3c(oc4ccccc43)c2=O)c1,"inconclusive [inhibitor, single point]",–
O=C(NC1(Cc2ccc(O)cc2)CCCCC1)c1ccccc1,"inconclusive [inhibitor, single point]",–
CCOc1ccc(-c2nnc(SCC(=O)NCc3ccccc3)nc2-c2ccc(OCC)c(OC)c2)cc1OC,–,inactive: 41.7%
NC(Cc1ccc(C(F)(F)F)cc1)c1csc(Nc2ccccn2)n1 (stereo not drawn),"inconclusive [inhibitor, single point]",–
O=C(Nc1ccccc1)C1=C[C@H](c2csc3ccccc23)C[C@H](OCc2ccc(CO)cc2)O1,active: 10 µM,–
C=CCC(Nc1ccco1)c1ccccc1 (stereo not drawn),"inconclusive [inhibitor, single point]",–
FC(F)Sc1ccc(NC(=S)NCc2ccccc2)cc1,"inconclusive [inhibitor, partial curve, poor fit]",–
CCCCCCCCN1C(=O)[C@H](CC(=O)N2CCN(C(=O)OCC)CC2)C[C@@]2(C(=O)OC)CC(C)(C)CC=C12,"inconclusive [inhibitor, partial curve, poor fit]",–
COc1cccc(C(C(=O)NC(C)(C)C)N(Cc2ccco2)C(=O)CCC(=O)Nc2cc(C)on2)c1OC (stereo not drawn),"inconclusive [inhibitor, single point]",–
COc1ccc(OC)c(CCNC(=O)Cn2nc(C)c3c(C)n(-c4ccc(C)cc4)nc3c2=O)c1,"inconclusive [inhibitor, partial curve, poor fit]",–
COC(=O)N(C)C[C@@H]1OCc2ccccc2-c2c(n(C)c3ccccc23)C(=O)N([C@H](C)CO)C[C@@H]1C,"inconclusive [inhibitor, single point]",–
CCCCN(C(=O)CSCc1c(C)noc1C)c1c(N)n(CCC)c(=O)[nH]c1=O,–,inactive: -5.64%
CC(C)C[C@H](NC(=O)OCC1c2ccccc2-c2ccccc21)C(=O)O,"inconclusive [inhibitor, partial curve, poor fit]",–
O=C(CSc1nc2ccccc2nc1Cc1ccccc1)N1CCCCC1,"inconclusive [inhibitor, partial curve, poor fit]",–
CC1CCCCN1S(=O)(=O)c1ccc(S(=O)(=O)N(Cc2ccccc2)Cc2ccco2)cc1 (stereo not drawn),"inconclusive [inhibitor, single point]",–
N#Cc1c(NC2CCCCC2)nc(-c2ccco2)c2c1CCCC2,"inconclusive [inhibitor, single point]",–
COc1cc(OC)cc(C(=O)Nc2ccc3c(c2)N(C2CCCC2)C(=O)c2ccccc2S3)c1,"inconclusive [inhibitor, full curve, poor fit]",–
